The labels stand for the following.
B1: PhoQ; a variant is named by its letters at X, in order, P23837 (parent)
chain: MKKLLRLFFPLSLRVRFLLATAAVVLVLSLAYGMVALIGYSVSFDKTTFRLLRGESNLFYTLAKWENNKLHVELPENIDKQSPTMTLIYDENGQLLWAQRDVPWLMKMIQPDWLKSNGFHEIEADVNDTSLLLSGDHSIQQQLQEVREDDDDAEMTHSVAVNVYPATSRMPKLTIVVVDTIPVELKSSYMVWSWFIYVLSANLLLVIPLLWVAAWWSLRPIEALAKEVRELEEHNRELLNPATTRELTSLVRNLNRLLKSERERYDKYRTTLTDLTHSLKTPLXXLQXXLRSLRSEKMSVSDAEPVMLEQISRISQQIGYYLHRASMRGGTLLSRELHPVAPLLDNLTSALNKVYQRKGVNISLDISPEISFVGEQNDFVEVMGNVLDNACKYCLEFVEISARQTDEHLYIVVEDDGPGIPLSKREVIFDRGQRVDTLRPGQGVGLAVAREITEQYEGKIVAGESMLGGARMEVIFGRQHSAPKDE

The other results are listed elsewhere or left out.

Variants of B1 are the subject of this experiment. Put plainly: enrichment ratio after two sorts for PhoP signalling (ratio (wild type AVST 3.29)); higher = more functional. To be noted: with PhoP (E. coli).
As to PDCC, the enrichment ratio was not above 0.25.

As to GHKH, the enrichment ratio was not above 0.25.

For the variant NAAF, the enrichment ratio was not above 0.25.

On to SHCY, for which the enrichment ratio worked out at 6.35.

With HEPV, the enrichment ratio is not above 0.25.

Consider YIVK, for which the enrichment ratio was not above 0.25.

On to HWMR, for which the enrichment ratio is not above 0.25.

In the case of VPKQ, the enrichment ratio was not above 0.25.

Regarding SKFW, the enrichment ratio is not above 0.25.

For YGEQ, the enrichment ratio was not above 0.25.

Consider TLRC, for which the enrichment ratio was not above 0.25.

Turning to HPCM, the enrichment ratio was not above 0.25.

For NIDK, the enrichment ratio is not above 0.25.

Turning to SPNT, the enrichment ratio was not above 0.25.

For the variant AASY, the enrichment ratio was not above 0.25.

Turning to IFEV, the enrichment ratio was not above 0.25.

For LCSQ, the enrichment ratio is not above 0.25.

In the case of RVEV, the enrichment ratio is not above 0.25.

With RWNA, the enrichment ratio was not above 0.25.

With REHH, the enrichment ratio was not above 0.25.

As to MISY, the enrichment ratio is not above 0.25.

Regarding GRCR, the enrichment ratio was not above 0.25.

With AWEN, the enrichment ratio was not above 0.25.

Take CLVS: the enrichment ratio was not above 0.25.

For the variant TVLW, the enrichment ratio was not above 0.25.

Take IKSP: the enrichment ratio is not above 0.25.

Take PYKK: the enrichment ratio was not above 0.25.

For the variant GLRE, the enrichment ratio was not above 0.25.

Regarding DGIH, the enrichment ratio was not above 0.25.

As for QSGL, the enrichment ratio was 4.64.

As for NTMI, the enrichment ratio is not above 0.25.

RQQA: the enrichment ratio was not above 0.25.

In the case of METM, the enrichment ratio was determined as 4.44.

With THAC, the enrichment ratio amounted to 6.19.

Consider HEVR, for which the enrichment ratio was not above 0.25.

Turning to PRED, the enrichment ratio was not above 0.25.

With PDIY, the enrichment ratio was not above 0.25.

Take LRFD: the enrichment ratio is not above 0.25.

On to VKRE, for which the enrichment ratio is not above 0.25.

In the case of HSHT, the enrichment ratio was not above 0.25.

For RGPM, the enrichment ratio was not above 0.25.

Turning to NVSK, the enrichment ratio was not above 0.25.

For AFVH, the enrichment ratio is not above 0.25.

Consider NCIK, for which the enrichment ratio is not above 0.25.

In the case of FHPI, the enrichment ratio is not above 0.25.

Regarding KQIP, the enrichment ratio is not above 0.25.

Turning to FEAF, the enrichment ratio is not above 0.25.

In the case of IINF, the enrichment ratio is not above 0.25.

For YWPQ, the enrichment ratio is not above 0.25.

Regarding TTKD, the enrichment ratio was not above 0.25.

On to KQDH, for which the enrichment ratio was not above 0.25.

As to STDE, the enrichment ratio is not above 0.25.

Regarding KPMA, the enrichment ratio is not above 0.25.

Consider FNII, for which the enrichment ratio was not above 0.25.

Turning to GYGQ, the enrichment ratio is not above 0.25.

As to VIEL, the enrichment ratio is not above 0.25.

Take RHGF: the enrichment ratio is not above 0.25.

For HRTN, the enrichment ratio was determined as 6.33.

Take YTHP: the enrichment ratio is not above 0.25.

In the case of DCSW, the enrichment ratio was not above 0.25.

In the case of YGAN, the enrichment ratio was not above 0.25.

For the variant LACK, the enrichment ratio is not above 0.25.

NIDC: the enrichment ratio is not above 0.25.

On to KPAF, for which the enrichment ratio was not above 0.25.

In the case of GLEI, the enrichment ratio was not above 0.25.

For WLFF, the enrichment ratio is not above 0.25.

On to ETMY, for which the enrichment ratio is not above 0.25.

FKVC: the enrichment ratio was not above 0.25.

For the variant RENL, the enrichment ratio was not above 0.25.

With LEYK, the enrichment ratio is not above 0.25.

Turning to KCGI, the enrichment ratio is not above 0.25.

As for EDNY, the enrichment ratio is not above 0.25.

With ENPD, the enrichment ratio was not above 0.25.

Take AWIG: the enrichment ratio is not above 0.25.

Consider QMFY, for which the enrichment ratio is not above 0.25.

On to ACTW, for which the enrichment ratio is 9.88.

In the case of PQRI, the enrichment ratio was not above 0.25.

For the variant EDFE, the enrichment ratio is not above 0.25.

In the case of HHWP, the enrichment ratio is not above 0.25.

In the case of HRWM, the enrichment ratio is not above 0.25.

Regarding YWTW, the enrichment ratio is not above 0.25.

Regarding KNQI, the enrichment ratio was not above 0.25.

For MVAD, the enrichment ratio was not above 0.25.

ITMD: the enrichment ratio is not above 0.25.

Take RYMY: the enrichment ratio is not above 0.25.

TCWQ: the enrichment ratio was 8.73.

In the case of EGGC, the enrichment ratio is not above 0.25.

Regarding LLQA, the enrichment ratio was not above 0.25.

Consider YTPG, for which the enrichment ratio was not above 0.25.

As to MMTQ, the enrichment ratio is not above 0.25.

Regarding EHCA, the enrichment ratio was not above 0.25.

As to ATCS, the enrichment ratio was found to be 9.62.

With GHYP, the enrichment ratio is not above 0.25.

In the case of MVEW, the enrichment ratio is not above 0.25.

As to MYFK, the enrichment ratio is not above 0.25.

Take HRRV: the enrichment ratio was not above 0.25.

With HEFM, the enrichment ratio came to 1.96.

With YNFC, the enrichment ratio was not above 0.25.

Turning to EGST, the enrichment ratio is not above 0.25.

For DQNH, the enrichment ratio is not above 0.25.

Consider PFPH, for which the enrichment ratio is not above 0.25.

For the variant YKHP, the enrichment ratio is not above 0.25.

HHGY: the enrichment ratio was not above 0.25.

With NEIT, the enrichment ratio is not above 0.25.

For PEAK, the enrichment ratio was not above 0.25.

Regarding FAWP, the enrichment ratio is not above 0.25.

As to PMNY, the enrichment ratio was not above 0.25.

Take KMFP: the enrichment ratio was not above 0.25.

As to QLGL, the enrichment ratio amounted to 1.09.

In the case of NTML, the enrichment ratio was not above 0.25.

As for TRYK, the enrichment ratio is not above 0.25.

Turning to MNHF, the enrichment ratio turned out to be 4.26.

With SGMS, the enrichment ratio was determined as 6.87.

On to KPFS, for which the enrichment ratio is not above 0.25.

As for GLLF, the enrichment ratio is 4.76.

GNSA: the enrichment ratio stood at 2.7.

Consider PQNL, for which the enrichment ratio was not above 0.25.

Turning to EANT, the enrichment ratio is not above 0.25.

As for IGRH, the enrichment ratio is not above 0.25.

As for LYTM, the enrichment ratio is not above 0.25.

Take WRRW: the enrichment ratio is not above 0.25.

Take LGWE: the enrichment ratio is not above 0.25.

GLEH: the enrichment ratio was not above 0.25.

For the variant TKDC, the enrichment ratio was not above 0.25.

For the variant QVFP, the enrichment ratio is not above 0.25.

Consider APVR, for which the enrichment ratio was not above 0.25.

HPTH: the enrichment ratio was not above 0.25.

Regarding ISPP, the enrichment ratio is not above 0.25.

As for QSRS, the enrichment ratio was not above 0.25.

Consider SERF, for which the enrichment ratio was not above 0.25.

On to KAER, for which the enrichment ratio is not above 0.25.

In the case of TWPV, the enrichment ratio is not above 0.25.

Turning to QKLA, the enrichment ratio was not above 0.25.

Consider REEQ, for which the enrichment ratio was not above 0.25.

In the case of VKVM, the enrichment ratio was not above 0.25.

In the case of LDVP, the enrichment ratio was not above 0.25.

For IMML, the enrichment ratio was not above 0.25.

As to QFPN, the enrichment ratio was not above 0.25.

As for HNSF, the enrichment ratio was not above 0.25.

For TEQY, the enrichment ratio is 12.5.

Consider ATLK, for which the enrichment ratio was 17.

For AHVR, the enrichment ratio was not above 0.25.

As for EALP, the enrichment ratio was 0.25.

Take PIPQ: the enrichment ratio was not above 0.25.

For the variant QKAA, the enrichment ratio is not above 0.25.

Take WRQW: the enrichment ratio was not above 0.25.

In the case of EAKY, the enrichment ratio is not above 0.25.

Take IFMN: the enrichment ratio is not above 0.25.

As to RSEH, the enrichment ratio is not above 0.25.

Regarding GTFN, the enrichment ratio is not above 0.25.

On to IDTN, for which the enrichment ratio is not above 0.25.

As for YKDC, the enrichment ratio was not above 0.25.

On to IMQS, for which the enrichment ratio is not above 0.25.
